The campaign covered roughly 110,000 compounds. About 230 (0.21%) showed an effect of 50% or more. The list shows a part of the results.
biological target: DPAP1 (Plasmodium falciparum, UniProt Q8IIJ9); assay: primary screen, percent inhibition; read by cleavage of a fluorogenic dipeptide substrate; higher = more effect of the substance; design: species or system P. falciparum D10 trophozoite lysates; single well
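Note: 30 min substrate incubation versus DMSO and 10 µM JCP410 controls.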

Chain of DPAP1 (Q8IIJ9 whole entry, looked up): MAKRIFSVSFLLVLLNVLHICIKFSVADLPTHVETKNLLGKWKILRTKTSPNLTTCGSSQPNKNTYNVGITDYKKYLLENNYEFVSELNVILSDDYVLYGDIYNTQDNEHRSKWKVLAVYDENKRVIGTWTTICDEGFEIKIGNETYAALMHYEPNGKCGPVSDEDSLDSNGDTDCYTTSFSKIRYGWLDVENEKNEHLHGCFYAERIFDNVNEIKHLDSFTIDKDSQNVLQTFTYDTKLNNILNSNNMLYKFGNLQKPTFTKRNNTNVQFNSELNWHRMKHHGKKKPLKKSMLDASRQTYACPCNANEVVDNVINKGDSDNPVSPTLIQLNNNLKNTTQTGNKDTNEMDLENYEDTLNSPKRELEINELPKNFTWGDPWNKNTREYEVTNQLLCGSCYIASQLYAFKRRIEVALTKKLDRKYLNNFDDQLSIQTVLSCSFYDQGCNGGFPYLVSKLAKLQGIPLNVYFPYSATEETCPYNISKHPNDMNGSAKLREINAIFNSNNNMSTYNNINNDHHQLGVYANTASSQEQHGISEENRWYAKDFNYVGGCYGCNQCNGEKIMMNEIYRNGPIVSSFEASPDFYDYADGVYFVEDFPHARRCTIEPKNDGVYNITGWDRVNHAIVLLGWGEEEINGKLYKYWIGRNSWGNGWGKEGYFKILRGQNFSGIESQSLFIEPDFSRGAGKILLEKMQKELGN

| SMILES | % Inhibition @ 10 uM [%] |
| --- | --- |
| CC(C)(C)Cc1ccc(C2C(=O)c3ccccc3C2=O)cc1 | 5.77 |
| CCOC(=O)c1cnc(SCC(=O)N[C@]23C[C@H]4C[C@H](C[C@H](C4)C2)C3)nc1N | 0.558 |
| COc1ccc(N2C(=O)CC(Cc3ccccc3)C2=O)cc1 (stereo not drawn) | 0.661 |
| CCC(C(=O)N1CCOCC1)n1nc(C)c2c(C)n(-c3ccccc3)nc2c1=O (stereo not drawn) | -1.21 |
| CN(C)c1ccc(NS(=O)(=O)c2ccccc2)cc1 | -1.78 |
| O=C(Cn1nc(Cc2ccncc2)c2ccccc2c1=O)N(Cc1ccco1)C1CCCCC1 | -6.52 |
| Cc1cc(C)c(NC(=O)CNC(C)(C)C)c(C)c1 | 1.29 |
| Cc1ccc(CC(CC(=O)O)C(=O)Nc2ccc(Cl)cc2)cc1 (stereo not drawn) | -3.49 |
| FC(F)(F)c1cccc(-c2nnn3c2nc(NCC2CCCO2)c2ccccc23)c1 (stereo not drawn) | 5.09 |
| Cc1ccccc1OCC(=O)Nc1sc2c(c1C(=O)NC1CCS(=O)(=O)C1)CCCC2 (stereo not drawn) | 3.21 |
| CCOC(=O)c1c(N2C(=O)C=CC2=O)sc(C)c1C | 3.8 |
| COCc1cc(C)nc(SCC(=O)Nc2cc(Cl)ccc2Cl)c1C#N | -5.01 |
| CCOc1ccc(N(C(C)C(=O)NCc2ccncc2)S(C)(=O)=O)cc1 (stereo not drawn) | -2.8 |
| CC1=C(C)CC2C(=O)N(c3c(C)cccc3C)C(=O)C2C1 (stereo not drawn) | 18 |
| c1cc2c[nH]nc2cc1NCC1CCCCC1 | -4.75 |
| COc1ccc(Nc2nc(-c3c(C)nc4ncccn34)cs2)cc1 | -0.711 |
| Cc1cc(Br)ccc1OCC(=O)N1CCc2ccccc21 | 0.245 |
| COc1ccccc1OCC(=O)NCc1ccccc1 | -2.3 |
| O=C(Cn1c2c(c(-c3ccccc3Cl)cc1=O)CCC2)NCCc1ccc(Cl)cc1 | -4.53 |
| Clc1ccc2ncnc(-c3ccccc3)c2c1 | 0.132 |
| CCN(CC)CCCNC(=O)C(C)n1nc(C)c2sc3ccccc3c2c1=O (stereo not drawn) | 1.72 |
| c1ccc(CN2CCC(NCC3CCCCC3)CC2)cc1 | -3.6 |

| SMILES | % Inhibition @ 10 uM [%] |
| --- | --- |
| O=C(Nc1cc(C(F)(F)F)ccc1Cl)c1ccc2c(c1)OCO2 | 5.41 |
| CN1C(=O)c2[nH]nc(-c3ccc(F)cc3)c2C1c1ccc(O)cc1 (stereo not drawn) | -4.67 |
| COCCCNC(=O)c1c(OC)cccc1OC | 2.05 |
| Cc1nnc(N2CCC(C(=O)NCCCN3CCN(C)CC3)CC2)c2nn(-c3ccccc3)c(C)c12 | 3.99 |
| CCCn1c2c(c(=N)c3c1CCC3)CCCC2 | -4.68 |
| O=C(/C=C/c1ccc(Cl)cc1)N1CCOCC1 | 3 |
| CCOc1ccc(C2c3c(oc4ccccc4c3=O)C(=O)N2c2nnc(C(C)C)s2)cc1OC (stereo not drawn) | 4.99 |
| O=C(c1nn2c(C(F)(F)F)cc(-c3cccs3)nc2c1Br)N1CCOCC1 | 9.91 |
| CCOc1ccc(-n2cccc2/C=C2\C(=N)N3N=CSC3=NC2=O)cc1 | -3.35 |
| O=C(Nc1ccccc1N1CCN(C(=O)c2ccccc2)CC1)c1cccnc1Cl | -4.12 |
| CCOc1ccc(N2CN=c3s/c(=C\c4cccnc4)c(=O)n3C2)cc1 | 2.36 |
| O=[N+]([O-])c1ccc(CNc2ccc(F)cc2)s1 | -2.34 |
| O=C(Cc1ccc(-n2cccc2)cc1)NC1CCCCCC1 | 1.2 |
| O=C(Cc1ccccc1F)Nc1ccc(Cl)nc1 | -0.872 |
| CCCCC(=O)C1=C(NC(C)C)CC(C)(C)CC1=O | 3.46 |
| COc1ccc(C2c3c(n(C)c4ccccc34)C(=O)N2CC(=O)NCc2ccc3c(c2)OCO3)cc1 (stereo not drawn) | 3.42 |
| COc1ccc(C2=NOC(C(=O)N3CCCCC3)C2)cc1OC (stereo not drawn) | 1.24 |
| CC(=O)OC[C@@H](C#N)NC(=O)[C@H](CC1CCCCC1)NC(=O)OCc1ccccc1 | -1.41 |
| C=CCCC(C#N)NC(=O)[C@H](CC(C)C)NC(=O)OCc1ccccc1 (stereo partly drawn) | 1.71 |
| CSc1nc(SC)c2c3c(sc2n1)CN(C)CC3 | 40.1 |
| Nc1nc(=O)n(CC(O)C(=O)O)cc1Br (stereo not drawn) | 0.0289 |
| c1ccc2cc(CC3=NCCN3)ccc2c1 | -0.25 |

| SMILES | % Inhibition @ 10 uM [%] |
| --- | --- |
| O=C1CSC2(C(=O)Nc3ccccc32)N1c1ccccc1 (stereo not drawn) | -6.36 |
| Cc1c(Cl)cccc1NC(=O)c1cccnc1Cl | -5.92 |
| Cc1nn(CC(=O)N2CCC3(CC2)OCCO3)c(=O)c2cccn12 | -1.17 |
| CC(C)(C)c1ccccc1OCCCn1ccnc1 | 9.64 |
| O=[N+]([O-])c1ccc(CN2CCN(c3ccc(Cl)cc3)CC2)o1 | 1.2 |
| Cc1cc(C)n2c(SCc3c(C)noc3C)nnc2n1 | 2 |
| O=C(O)c1cccc([N+](=O)[O-])c1C(=O)Nc1ccc2ccccc2c1 | -1.42 |
| Cc1cccc(N2CCc3c2nc2ccccc2c3N)c1 | 0.847 |
| CCOC(=O)c1c(C)[nH]c(C)c1S(=O)(=O)NCc1ccccn1 | -0.349 |
| O=C(O)c1ccc(Oc2ccc(Oc3ccc(C(=O)O)c(C(=O)O)c3)cc2)cc1 | -0.415 |
| CCOc1ccc2c(=O)c(-c3ccccc3)c(C(F)(F)F)oc2c1 | 4.49 |
| Cc1cccc(N2N=C(c3ccccc3)CC2c2ccccc2)c1 (stereo not drawn) | -9.98 |
| COc1nc(-c2ccccc2)cc(-c2ccccc2)n1 | -3.77 |
| CC1(C)CC(=O)c2cc(OCC(=O)O)ccc2O1 | 16.8 |
| COc1cc(CNc2nc3c(C)cc(C)cc3s2)ccc1O | 3.93 |
| Cc1cc(C)n2nc(SCc3cc(=O)n4cc(Br)ccc4n3)nc2n1 | -0.406 |
| O=C1N/C(=C/c2cn(Cc3ccccc3)c3ccccc23)C(=O)N1Cc1ccccc1F | -5.51 |
| Cc1cc(C)n2nc(SCC(=O)NC(C)CCc3ccccc3)nc2n1 (stereo not drawn) | -2.26 |
| COc1ccc(CCC(=O)Nc2ccc(CC#N)cc2)cc1 | 1.57 |
| COc1ccc(S(=O)(=O)N2CCN(Cc3ccc(F)cc3)CC2)cc1 | 1.28 |
| Cc1[nH]nc2c1C(c1ccc3ccccc3c1)C(C#N)=C(N)O2 (stereo not drawn) | 2.36 |
| N#C/C(=C\Nc1ccc(C(N)=O)cc1)c1nc(-c2ccc(F)cc2)cs1 | -9.05 |
